# Test results as given in PubChem BioAssay AID686979 (National Center for Advancing Translational Sciences (NCATS), 2013).
# Where “and” joins values, the source holds several entries; their conditions need not be identical. Equal entries are not always repeated. Out of some 420,000 compounds screened, about 50,000 (12%) were called active. Inconclusive results, whose numbers are uncertain, are shown with a selection of clear calls. Calls follow the shape of the dose curve; as a rule, active = well fitted inhibition curve with a large enough effect; inconclusive = small, poorly fitted or top-dose-only effect; inactive = flat fitted curve, though single readings scatter. No potency is given beside an inconclusive call; the fits are too rough.
# Assay: qHTS for Inhibitors of human tyrosyl-DNA phosphodiesterase 1 (TDP1): qHTS in cells in presence of CPT; also: nearly all actives have a fitted effect of over 55% in size
# Details: chicken DT40 Tdp1-/-;hTDP1 cells + 20 nM CPT, ATP luminescence, 48 h; activity change, negative = growth inhibition: at 46.2 µM (top of the series)
# How it was run: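 Cell growth measured by CellTiter-Glo luminescence after a minimum 48 h, 37 C compound exposure with 20 nM CPT in Tdp1-knockout DT40 cells stably expressing hTDP1, seeded 400/well; qHTS titration format.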
# % is scaled to controls: 0 for no effect and ±100 for the full control effect; potency is read from the fitted curve at half-maximal effect; tags tell the direction and shape of the fitted curve.
SMILES,Potency,"activity change, negative = growth inhibition"
O=C(COc1ccc2c(-c3ccccc3)cc(=O)oc2c1)NC1CCS(=O)(=O)C1 (centres undefined),"inconclusive [inhibitor, single point]",–
O=S(=O)(c1ccc(Cl)cc1)N1CCN(c2nc(-c3ccccc3)nc3ccccc23)CC1,"inconclusive [inhibitor, single point]",–
CC(=NNC(=O)CSCC(=O)NN=C(C)c1ccccc1)c1ccccc1,inactive,–
CC1CCCN(S(=O)(=O)c2ccc(N3CCCCS3(=O)=O)cc2)C1 (centres undefined),inactive,–
Cc1ccc(C(=O)Nc2cccc3cccnc23)cc1C,"inconclusive [inhibitor, single point]",–
Cc1ccc(C)c(N2C(=O)N(C)c3ccccc3S2(=O)=O)c1,"inconclusive [inhibitor, partial curve]",–
COc1ccc(CCC(=O)Nc2ccc(OC)c(S(=O)(=O)N3CCCCC3)c2)cc1,"inconclusive [inhibitor, single point]",–
COc1ccc(-n2c(C)nc3cc(C(=O)NC4CCCCCC4)ccc32)cc1,"inconclusive [inhibitor, single point]",–
Cc1occc1C(=O)Nc1sccc1C(N)=O,inactive,–
CCCN(CCC)CCNC(=O)c1sc2nc3n(c(=O)c2c1C)CCCCC3,"inconclusive [inhibitor, single point]",–
Nc1c(-c2ccccc2)c(CSc2nc3ccccc3[nH]2)nn1-c1ccc(Cl)cc1,"inconclusive [inhibitor, single point]",–
CC(C)(C)c1ccc(S(=O)(=O)N2CCCCC2C(=O)NCc2ccccn2)cc1 (centres undefined),active: 23.1 µM,–
O=c1c2c(nc3nc(Cc4ccccc4)[nH]n13)CCC2,"inconclusive [inhibitor, single point]",–
O=C(N/N=C/c1ccc([N+](=O)[O-])o1)c1ccc(O)cc1,active: 6.51 µM and active: 2.86 µM,–
COc1ccc(C(=O)Cn2c(C(C)=O)nc3ccccc32)cc1,active: 14.6 µM,–
CCOc1ccc(C(=O)COC(=O)C2CCN(c3ccc(C(F)(F)F)cn3)CC2)cc1,"inconclusive [inhibitor, single point]",–
Cc1[nH]nc(C(=O)NN=Cc2ccccc2Cl)c1N=NN(C)C,active: 9.2 µM,–
O=C(COC(=O)CN1C(=O)C2CCCCC2C1=O)Nc1cc(S(=O)(=O)N2CCOCC2)ccc1Cl (centres undefined),inactive,–
CCc1cccc(NC(=O)C2CCC(CNS(=O)(=O)c3ccc4c(c3)CCCC(=O)N4)CC2)c1 (centres undefined),"inconclusive [inhibitor, single point]",–
Cc1cc[n+](CC(=O)Nc2cccc(C)c2)cc1,inactive,–
CC1Cc2ccccc2N1C(=O)Cn1cc(C(F)(F)F)ccc1=O (centres undefined),inactive,–
CCc1cc(C(=O)N2CCN(c3ncc(C(F)(F)F)cc3Cl)CC2)sc1C,"inconclusive [inhibitor, single point]",–
COCCN1CCN(C(=O)c2cc(COc3ccc(F)cc3Cl)on2)CC1,inactive,–

SMILES,Potency,"activity change, negative = growth inhibition"
O=C(Nc1ccc2c(c1)nc1n2CCSC1)c1ccccc1,inactive,–
CCOc1ccccc1CNC(=O)c1cnc2sc(N3CCOCC3)nn2c1=O,inactive,–
CCOC(=O)c1cccc(NC(=O)CSc2nc3ccccc3c(=O)n2CCOC)c1,"inconclusive [inhibitor, single point]",–
Cc1ccc(CCNC(=O)CCn2ccc3cc(S(=O)(=O)N4CCCC4)ccc32)cc1,"inconclusive [inhibitor, single point]",–
CN(C)S(=O)(=O)c1cccc(C(=O)NCCOC(=O)c2cc(F)c(F)cc2Cl)c1,inactive,–
COc1ccc(C(=O)N2CC(=O)N(CCc3ccccc3)C(=O)C2)cc1OC,inactive,–
Clc1ccccc1-c1nnc(-c2ccccc2CNc2ccc(Br)cc2)o1,"inconclusive [inhibitor, single point]",–
CCOc1ccc(-n2c(SCC(=O)Nc3ccc4c(c3)OCCO4)nc3c([nH]c4ccccc43)c2=O)cc1,"inconclusive [inhibitor, partial curve, poor fit]",–
COc1ccc(Nc2c(-c3cc4ccccc4o3)nc3nc(C)cc(C)n23)cc1,"inconclusive [inhibitor, single point]",–
COc1ccc(CC(N)C(=O)NC2C(O)[C@H](n3cnc4c(N(C)C)ncnc43)O[C@@H]2CO)cc1 (some centres undefined),active: 17.6 µM,–
C/C(=N/Nc1ccc([N+](=O)[O-])cc1)c1c[nH]c2ccccc12,"inconclusive [inhibitor, single point]",–
O=C(CCCl)N1c2ccccc2C=Cc2ccccc21,"inconclusive [inhibitor, partial curve, poor fit]",–
COc1ccccc1/C=C/CN1CCN(Cc2ccc(F)cc2)C(CCO)C1 (centres undefined),"inconclusive [inhibitor, single point]",–
COc1ccc(-c2nc3ccc(C(=O)NCCCN4CCOCC4)cc3nc2-c2ccc(OC)cc2)cc1,"inconclusive [inhibitor, single point]",–
CCc1nc2ccc(C(=O)NCc3ccc(SC)cc3)cc2nc1CC,"inconclusive [inhibitor, partial curve]",–
O=C(c1ccccc1)c1c[nH]c(C(=O)NNc2cccc(Cl)n2)c1,inactive,–
O=C(O)CSc1c(O)c2ccccc2[nH]c1=O,"inconclusive [inhibitor, single point]",–
CCCCOc1ccc(-c2nnn(CC(=O)NCCc3c[nH]c4ccccc34)n2)cc1,inactive,–
CCOc1ccc(-c2cn3ccccc3n2)cc1[N+](=O)[O-],"inconclusive [inhibitor, single point]",–
COc1ccccc1-c1cc(-n2ccnc2)ncn1,inactive,–
COc1ccc(-c2oc(=O)c3cc(OC)c(OC)cc3c2/C=C/c2ccc([N+](=O)[O-])cc2)cc1,–,inconclusive: -33.8% [inhibitor]
CCc1cccc(NC(=O)C(NS(=O)(=O)c2ccc3nc(C)sc3c2)C(C)C)c1 (centres undefined),inactive,–
COc1ccc(-c2cc(OC(=O)c3ccccc3)c3c(C)oc(C)c3c(=O)c2)cc1OC,"inconclusive [inhibitor, single point]",–

SMILES,Potency,"activity change, negative = growth inhibition"
COc1cccc(NC(CNS(=O)(=O)c2ccc(Cl)cc2)c2ccccc2)c1 (centres undefined),"inconclusive [inhibitor, single point]",–
CC(C)c1ccc2c(c1)NC(c1ccncc1)=NC(c1cccs1)=N2,"inconclusive [inhibitor, single point]",–
CCc1ccc(C2=NN(CCC(=O)NC(C)CCc3ccccc3)C(=O)CC2)cc1 (centres undefined),"inconclusive [inhibitor, single point]",–
COc1ccccc1Oc1ccc(N/C=C2/CCCC2=O)cc1,"inconclusive [inhibitor, partial curve]",–
O=C(Nc1cccnc1N1CCOCC1)c1ccco1,"inconclusive [inhibitor, single point]",–
CCOC(=O)CN1C(=O)C(=O)N(Cc2c(C)cc(C)cc2C)C1=O,inactive,–
COc1ccc(CCNC(=O)c2nnn(-c3cc(C)cc(C)c3)c2N)cc1OC,active: 14.6 µM,–
NS(=O)(=O)c1ccc(NC(=O)COC(=O)c2c3c(nc4ccccc24)/C(=C\c2ccc4c(c2)OCO4)CCC3)cc1,active: 18.4 µM,–
CCOC(=O)c1ccn(-c2nc(-c3ccco3)cc(C(F)(F)F)n2)n1,"inconclusive [inhibitor, single point]",–
Cc1ccc(Cl)cc1N1CCN(C(=O)c2ccc3c(c2)N(Cc2ccccc2F)C(=O)c2ccccc2S3=O)CC1 (centres undefined),"inconclusive [inhibitor, partial curve]",–
Cc1nn(-c2ccc([N+](=O)[O-])cc2)c(N)c1-c1ccccc1,"inconclusive [inhibitor, partial curve, poor fit]",–
C(=C\c1nnc2c3ccccc3ncn12)/c1ccccc1,active: 5.17 µM,–
Cc1nc2nc(SCC(=O)N3CCOCC3)nn2c(C)c1Cc1ccccc1,–,inconclusive: -31.8% [inhibitor]
CCCN1C(=O)c2[nH]nc(-c3cccc(OC)c3)c2C1c1ccccn1 (centres undefined),"inconclusive [inhibitor, single point]",–
Cc1ccc(S(=O)(=O)Nc2cccc3cccnc23)cc1,"inconclusive [inhibitor, single point]",–
Cc1ccc(NS(=O)(=O)c2c(C)[nH]c(C)c2C(=O)N2CCCCC2)cc1C,"inconclusive [inhibitor, single point]",–
CC(=O)c1ccccc1NC(=O)c1ccc(OCc2c(C)noc2C)cc1,"inconclusive [inhibitor, single point]",–
O=C(CCCCCNC(=O)N1CCn2c1nc1ccccc12)NCc1ccccc1Cl,"inconclusive [inhibitor, single point]",–
CCN(CCCNC(=O)c1cc2cc3ccc(OC)cc3nc2s1)c1cccc(C)c1,"inconclusive [inhibitor, single point]",–
COc1cc2c(cc1OC)/C(=C/C(=O)N1CCOCC1)NC(C)(C)C2,inactive,–
O=C(c1ccccc1)c1coc(-c2ccccc2)c1,"inconclusive [inhibitor, single point]",–
CC(C)Cn1c(=O)c2ccccc2n2c(CCC(=O)NCc3ccc(Cl)cc3)nnc12,"inconclusive [inhibitor, full curve, poor fit]",–
Cc1ccc(S(=O)(=O)N2CCC(c3nc(-c4cccs4)nc4ccccc34)CC2)cc1,"inconclusive [inhibitor, single point]",–
